# Publication PMC4336329 (PLoS ONE, 2015)
# Out of some 310,000 compounds screened, about 2,200 (0.71%) showed an effect of 50% or more. The effect is printed as a negative number. The list shows a part of the results.
# Molecular target: human ether-à-go-go-related gene (hERG) potassium channel (human, UniProt Q12809)
# Test: primary screen, population patch clamp on CHO cells stably expressing hERG
# Chain of human ether-à-go-go-related gene (hERG) potassium channel (Q12809 whole entry, looked up): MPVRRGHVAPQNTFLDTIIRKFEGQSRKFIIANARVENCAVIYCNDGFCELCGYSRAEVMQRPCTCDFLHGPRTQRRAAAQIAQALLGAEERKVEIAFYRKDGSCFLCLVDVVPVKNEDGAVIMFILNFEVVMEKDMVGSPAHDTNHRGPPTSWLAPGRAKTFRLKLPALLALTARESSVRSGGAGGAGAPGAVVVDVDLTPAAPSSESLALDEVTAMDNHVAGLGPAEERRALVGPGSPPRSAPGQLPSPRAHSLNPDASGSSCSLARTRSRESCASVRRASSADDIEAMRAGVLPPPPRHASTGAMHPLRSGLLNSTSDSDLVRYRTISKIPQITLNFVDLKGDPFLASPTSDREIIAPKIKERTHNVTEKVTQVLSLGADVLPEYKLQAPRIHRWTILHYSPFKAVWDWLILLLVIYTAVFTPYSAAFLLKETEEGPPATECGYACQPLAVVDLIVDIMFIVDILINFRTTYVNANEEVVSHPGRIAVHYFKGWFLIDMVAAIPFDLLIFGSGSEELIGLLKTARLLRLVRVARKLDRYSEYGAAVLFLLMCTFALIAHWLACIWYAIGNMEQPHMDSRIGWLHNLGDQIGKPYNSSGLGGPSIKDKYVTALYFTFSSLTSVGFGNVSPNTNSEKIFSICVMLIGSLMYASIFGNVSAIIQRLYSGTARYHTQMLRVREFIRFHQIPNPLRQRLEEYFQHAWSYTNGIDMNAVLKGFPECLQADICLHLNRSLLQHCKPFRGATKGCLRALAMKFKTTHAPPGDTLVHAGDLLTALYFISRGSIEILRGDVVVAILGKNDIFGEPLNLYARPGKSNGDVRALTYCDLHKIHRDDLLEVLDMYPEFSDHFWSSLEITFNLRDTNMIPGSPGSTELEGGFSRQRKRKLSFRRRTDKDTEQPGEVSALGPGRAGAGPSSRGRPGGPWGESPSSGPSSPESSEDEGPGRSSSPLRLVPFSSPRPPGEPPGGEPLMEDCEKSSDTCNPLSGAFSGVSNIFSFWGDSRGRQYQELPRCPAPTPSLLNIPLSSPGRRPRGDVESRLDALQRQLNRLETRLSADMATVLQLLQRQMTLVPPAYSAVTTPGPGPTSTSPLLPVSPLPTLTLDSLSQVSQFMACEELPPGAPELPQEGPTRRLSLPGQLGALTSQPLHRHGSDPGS
row,Compound,"hERG current change (%, negative = inhibition) at 1uM [%]"
1,c1ccc(-c2csc(-c3ccc(-c4csnn4)cc3)n2)cc1,17.1
2,O=C(CN1C(=O)NC2NC(=O)NC21)N/N=C/c1ccc(F)cc1 (centres unmarked),-1.01
3,Cc1nc2cc(NC(=O)Nc3nccs3)ccc2n1C,3.28
4,COc1cc2c(cc1OC)C1C(C(=O)Nc3ccccc3N3CCN(C)CC3)c3ccccc3C(=O)N1CC2 (centres unmarked),-0.312
5,O=C(CSc1nnnn1-c1cccnc1)NCc1cccs1,15.2
6,COc1ccc(CNC(=O)C2CCN(C(=O)c3ccccc3)CC2)cc1,12.9
7,COC(=O)c1ccc(COC(=O)CNS(=O)(=O)c2ccccc2)cc1,8.43
8,CCOC(=O)c1cc2c(=O)n3ccccc3nc2n(Cc2ccco2)c1=NC(=O)c1cccc(OC)c1,5.14
9,Fc1ccc(-c2nnc(Cc3nnc(-c4ccc(F)cc4)o3)o2)cc1,7.24
10,CCCCn1nnnc1SCC(=O)N1CCN(C(=O)c2ccco2)CC1,-4.83
11,Cc1cc2c(c(=O)o1)C(C13C=CC(CC1)C3)C(C#N)=C(N)O2 (centres unmarked),-4.19
12,N#Cc1c(-c2ccccc2)nc2n(c1=O)CCS2,15.1
13,COc1ccc(N(CC(=O)NC2CCCCCC2)S(=O)(=O)c2ccccc2)cc1Cl,19.2
14,COc1ccc(C(=O)N/N=C/c2ccc(OC)c(CN3CCc4cc(OC)c(OC)cc4C3C)c2)cc1 (centres unmarked),-85.1
15,CCOc1ccc(Nc2nc(Cl)nc(NCCO)n2)cc1,19.3
16,COc1ccccc1NC(=S)NNC(=O)c1ccc(O)cc1,8.94
17,CCOc1ccc(C)cc1S(=O)(=O)Nc1ccc(Cl)cn1,-0.0375
18,CN(CC(=O)O)S(=O)(=O)/C=C/c1ccccc1,23.2
19,COc1ccc(S(=O)(=O)N(C)CC(=O)N2CCN(C)CC2)cc1C,6.2

row,Compound,"hERG current change (%, negative = inhibition) at 1uM [%]"
1,COc1ccc(S(=O)(=O)N2CCOCC2)cc1NC(=O)COc1cccnc1[N+](=O)[O-],11
2,CCOC(=O)NC(=O)COC(=O)c1cccc2ccccc12,-2.29
3,CCn1c(=O)c(CCC(=O)N2CCOCC2)c(C)c2c(C)nn(-c3ccccc3)c21,9.79
4,CC(C)(C)C(=O)Nc1sc2c(c1C#N)CCCCC2,10.1
5,C=CCNC(=S)Nc1cccc([N+](=O)[O-])c1,3.94
6,O=[N+]([O-])c1cnc(Sc2ccncn2)s1,13
7,O=C1/C(=C/c2cccnc2)SC(=S)N1CCc1ccccc1,5.32
8,COc1ccc(C2C(=O)N(CCc3ccccc3)CC(=O)N2C2CCCC2)cc1 (centres unmarked),5.07
9,O=C(CSc1ncn[nH]1)N1CCN(S(=O)(=O)c2ccccc2)CC1,22.6
10,COC(=O)c1cc(OC)c(OC)cc1N1C(=O)CCCC1=O,12.5
11,COc1ccccc1N=Cc1nc(-c2ccccc2)oc1OC(C)=O,12.9
12,CCN1C/C(=C/c2ccc(N3CCOCC3)cc2)C(=O)/C(=C/c2ccc(N3CCOCC3)cc2)C1,8.45
13,COc1ccc(-c2noc(CCN3C(=O)c4ccccc4C3=O)n2)cc1OC,-7
14,COc1ccccc1N1CCN(C(=O)CSc2ncnc3scc(-c4ccccc4)c23)CC1,6.87
15,COc1cccc(CNCCNC(=O)c2ccco2)c1OC.O=C(O)C(=O)O,-8.28
16,CCC1CCc2c([nH]c3ccccc3c2=O)O1 (centres unmarked),5.16
17,COc1ccccc1CN(Cc1nc2ccccc2c(=O)[nH]1)C(=O)Nc1cccc(C)c1,4.17
18,Cc1cc2c([nH]c3ccccc32)c2c1OC(C)(C)C=C2,-6.27
19,Cc1ccc(CS(=O)(=O)c2ncc(Cl)c(C(=O)Nc3nnc(C)s3)n2)cc1,7.77

row,Compound,"hERG current change (%, negative = inhibition) at 1uM [%]"
1,CC(=O)C1=C(C)NC(SCC(=O)c2ccc(C)cc2)=C(C#N)C1c1ccco1 (centres unmarked),8.75
2,O=C(O)c1ccc2c(c1)NC(=O)C(N1CCCC1)S2 (centres unmarked),8.79
3,COc1cc(CN2CCN(c3cccc(Cl)c3)CC2)cc(OC)c1OC,4.64
4,Cc1ccc(S(=O)(=O)NNC(=O)c2ccccc2-n2cccc2)cc1,-0.694
5,COC(=O)C1=C(c2ccc(F)cc2OCc2ccccc2)C[C@@H]2CC[C@H]1N2C(=O)N1CCOCC1,3.52
6,Clc1nc2ccccc2cc1/C=N/Nc1nc2ccccc2[nH]1,15.3
7,COc1ccc(-c2ccc(-c3nnc(Cc4ccc(OC)c(OC)c4)o3)cc2)cc1,-2.04
8,O=C1c2cccc(OCc3ccc(F)cc3)c2CCN1Cc1ccccc1,8.58
9,Cc1cc(C)n(-c2nnc(C)n2NS(C)(=O)=O)n1,14.6
10,COCCNC(=O)c1ccc(S(=O)(=O)c2ccc(Cl)cc2)c(NC(C)=O)c1,12
11,Cc1cccc(OCCCC(=O)NCCc2ccccc2)c1,15
12,CCOC(=O)c1c(S(=O)(=O)NCC2CCN(CCc3cccs3)CC2)c(C)n(C)c1C,-2.88
13,Cc1cc(C)c(S(=O)(=O)Nc2ccc(C(=O)O)cc2)cc1S(=O)(=O)Nc1ccc(C(=O)O)cc1,10.8
14,COc1ccc(N(CN2C(=O)C3C4C=CC(C4)C3C2=O)C(=O)c2ccco2)cc1 (centres unmarked),-3.38
15,Cc1cc(C(=O)Nc2sc(C)c(C)c2C#N)no1,-4.87
16,COc1cccc(/C=C2/CN(C)CC3=C2OC(N)=C(C#N)C3c2cccc(OC)c2)c1 (centres unmarked),5.1
17,CC(C)C(=O)Nc1cc(S(=O)(=O)Nc2cccc(Cl)c2)ccc1Cl,10.4
18,CCOc1ccc(S(=O)(=O)n2cnc3cc(C)c(C)cc32)cc1,13.2
